In PubChem BioAssay (NCI):
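Results reflect a 48-hour exposure of cells in 96-well plates to compound at five concentrations. The concentration for 50% growth inhibition is given as GI50.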 The source holds more than one record for some entries. They are shown here; other results are not. An entry can have further records. For part of these data: Records of one sample usually come from different ranges of test concentrations, not given here; a value can be the end of its range. For part of these data: The records of an entry repeat one measurement (runs, samples, wells, individuals or studies). Marks in square brackets tell the records apart. Letters hold for one entry only.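 The concentration for full growth arrest is given as TGI.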

Assays:
Experiment in all cases: DTP human tumour cell line panel, 48 h
[1] = system: OVCAR-4 ovarian
[2] = system: COLO 205 colon
[3] = system: RXF 393 renal
[4] = system: SNB-75 CNS
[5] = system: OVCAR-3 ovarian
[6] = system: NCI-H522 lung
[7] = system: EKVX NSCLC
[8] = system: MALME-3M melanoma
[9] = system: SK-MEL-28 melanoma

| SMILES | GI50 [1] | GI50 [2] | GI50 [3] | GI50 [4] | TGI [5] | TGI [6] | GI50 [7] | GI50 [8] | GI50 [9] |
| --- | --- | --- | --- | --- | --- | --- | --- | --- | --- |
| Nc1nc(N)c2nc(CNc3ccc(C(=O)NC(CCC(=O)O)C(=O)O)cc3)cnc2n1 (centres undefined) | < 10 nM [sample A, 1 test] and > 100 µM [sample B, mean of 2 tests] | 1.79 µM [sample A, mean of 2 tests] and 81.9 nM [sample B, mean of 2 tests] | > 100 µM [sample A, 1 test] and 82.7 nM [sample B, mean of 2 tests] | 27.5 µM [sample A, mean of 2 tests] and 92.1 nM [sample B, 1 test] | – | – | – | – | – |
| CN1CC[C@H](N(C)C(=O)N2CC(c3cc(F)ccc3F)=C[C@@]2(CO)c2ccccc2)[C@H](F)C1 | – | – | – | – | 179 nM and > 100 µM | 97.8 nM and 17.5 µM | 19.8 nM and 343 nM | 51 nM and 11.1 µM | 342 nM and 12 µM |
